The supplement of paper PMC10724272
MIC of invasive clinical C. tropicalis isolates, CLSI broth microdilution (fluconazole 0.12-256 mg/L, up to 1,024 for the azole-resistant cluster and its neighbour group; other ranges not stated); higher = less susceptible. Call: susceptible or wild type [S] / resistant or non-wild type [R] by CLSI breakpoints or cut-offs; intermediate and dose-dependent carry no call. '<=' and '>=' at the end values are inferred; the source marks only some of them. Isolates are numbered anew.

Assays:
Assay in all cases: CLSI broth microdilution.
posaconazole = compound: CC[C@@H]([C@H](C)O)n1ncn(-c2ccc(N3CCN(c4ccc(OC[C@@H]5CO[C@@](Cn6cncn6)(c6ccc(F)cc6F)C5)cc4)CC3)cc2)c1=O [posaconazole]
itraconazole = compound: CCC(C)n1ncn(-c2ccc(N3CCN(c4ccc(OCC5COC(Cn6cncn6)(c6ccc(Cl)cc6Cl)O5)cc4)CC3)cc2)c1=O [itraconazole]
fluconazole = compound: OC(Cn1cncn1)(Cn1cncn1)c1ccc(F)cc1F [fluconazole]
amphotericin B = compound: C[C@@H]1[C@H](O)[C@@H](C)/C=C/C=C/C=C/C=C/C=C/C=C/C=C/[C@H](O[C@@H]2O[C@H](C)[C@@H](O)[C@H](N)[C@@H]2O)C[C@@H]2O[C@](O)(C[C@@H](O)C[C@@H](O)[C@H](O)CC[C@@H](O)C[C@@H](O)CC(=O)O[C@H]1C)C[C@H](O)[C@H]2C(=O)O [amphotericin B]
voriconazole = compound: C[C@@H](c1ncncc1F)[C@](O)(Cn1cncn1)c1ccc(F)cc1F [voriconazole]
flucytosine = compound: Nc1[nH]c(=O)ncc1F [flucytosine]
anidulafungin = compound: CCCCCOc1ccc(-c2ccc(-c3ccc(C(=O)N[C@H]4C[C@@H](O)[C@@H](O)NC(=O)[C@@H]5[C@@H](O)[C@@H](C)CN5C(=O)[C@H]([C@@H](C)O)NC(=O)[C@H]([C@H](O)[C@@H](O)c5ccc(O)cc5)NC(=O)[C@@H]5C[C@@H](O)CN5C(=O)[C@H]([C@@H](C)O)NC4=O)cc3)cc2)cc1 [anidulafungin]
caspofungin = compound: CC[C@H](C)C[C@H](C)CCCCCCCCC(=O)N[C@H]1C[C@@H](O)[C@@H](NCCN)NC(=O)[C@@H]2[C@@H](O)CCN2C(=O)[C@H]([C@H](O)CCN)NC(=O)[C@H]([C@H](O)[C@@H](O)c2ccc(O)cc2)NC(=O)[C@@H]2C[C@@H](O)CN2C(=O)[C@H]([C@@H](C)O)NC1=O [caspofungin]
micafungin = compound: CCCCCOc1ccc(-c2cc(-c3ccc(C(=O)N[C@H]4C[C@@H](O)[C@@H](O)NC(=O)[C@@H]5[C@@H](O)[C@@H](C)CN5C(=O)[C@H]([C@H](O)CC(N)=O)NC(=O)[C@H]([C@H](O)[C@@H](O)c5ccc(O)c(OS(=O)(=O)O)c5)NC(=O)[C@@H]5C[C@@H](O)CN5C(=O)[C@H]([C@@H](C)O)NC4=O)cc3)no2)cc1 [micafungin]

Test System | MIC (posaconazole) | MIC (itraconazole) | MIC (fluconazole) | MIC (amphotericin B) | MIC (voriconazole) | MIC (flucytosine) | MIC (anidulafungin) | MIC (caspofungin) | MIC (micafungin)
Candida tropicalis isolate 381 (ERG11 copies: 7, Erg11p: Y132F, S154F (heterozygous)) | 1 mg/L [R] | 1 mg/L [R] | 256 mg/L [R] | 1 mg/L [S] | ≥ 8 mg/L [R] | ≤ 0.06 mg/L [S] | 0.12 mg/L [S] | 0.06 mg/L [S] | 0.06 mg/L [S]
Candida tropicalis isolate 371 (ERG11 copies: 2, Erg11p: no key change) | 0.12 mg/L [S] | 0.12 mg/L [S] | 1 mg/L [S] | 0.5 mg/L [S] | 0.12 mg/L [S] | ≤ 0.06 mg/L [S] | 0.12 mg/L [S] | 0.03 mg/L [S] | 0.03 mg/L [S]
Candida tropicalis isolate 328 (ERG11 copies: 2, Erg11p: Y132F, S154F (homozygous)) | 0.25 mg/L [S] | 0.12 mg/L [S] | 64 mg/L [R] | 1 mg/L [S] | 1 mg/L [R] | ≤ 0.06 mg/L [S] | 0.03 mg/L [S] | 0.03 mg/L [S] | 0.03 mg/L [S]
Candida tropicalis isolate 387 (ERG11 copies: 2, Erg11p: no key change) | 0.12 mg/L [S] | 0.06 mg/L [S] | 1 mg/L [S] | 1 mg/L [S] | 0.03 mg/L [S] | ≤ 0.06 mg/L [S] | 0.03 mg/L [S] | 0.03 mg/L [S] | 0.015 mg/L [S]
Candida tropicalis isolate 153 (ERG11 copies: 2, Erg11p: no key change) | 0.25 mg/L [S] | 0.25 mg/L [S] | 1 mg/L [S] | 1 mg/L [S] | 0.12 mg/L [S] | 0.12 mg/L [S] | 0.12 mg/L [S] | 0.06 mg/L [S] | 0.03 mg/L [S]
Candida tropicalis isolate 61 (ERG11 copies: 2, Erg11p: no key change) | 0.12 mg/L [S] | 0.12 mg/L [S] | 2 mg/L [S] | 1 mg/L [S] | 0.12 mg/L [S] | 0.25 mg/L [S] | 0.03 mg/L [S] | 0.03 mg/L [S] | 0.03 mg/L [S]
Candida tropicalis isolate 97 (ERG11 copies: 2, Erg11p: no key change) | 0.12 mg/L [S] | 0.12 mg/L [S] | 2 mg/L [S] | 0.5 mg/L [S] | 0.06 mg/L [S] | 0.5 mg/L [S] | ≤ 0.015 mg/L [S] | 0.03 mg/L [S] | 0.03 mg/L [S]
Candida tropicalis isolate 318 (ERG11 copies: 2, Erg11p: no key change) | 0.12 mg/L [S] | 0.12 mg/L [S] | 1 mg/L [S] | 0.5 mg/L [S] | 0.06 mg/L [S] | ≤ 0.06 mg/L [S] | 0.03 mg/L [S] | 0.03 mg/L [S] | 0.03 mg/L [S]
Candida tropicalis isolate 444 (ERG11 copies: 2, Erg11p: no key change) | 0.06 mg/L [S] | 0.25 mg/L [S] | 1 mg/L [S] | 0.5 mg/L [S] | 0.06 mg/L [S] | 0.12 mg/L [S] | 0.12 mg/L [S] | 0.06 mg/L [S] | 0.03 mg/L [S]
Candida tropicalis isolate 343 (ERG11 copies: 2, Erg11p: no key change) | 0.25 mg/L [S] | 0.25 mg/L [S] | 2 mg/L [S] | 1 mg/L [S] | 0.12 mg/L [S] | ≤ 0.06 mg/L [S] | 0.06 mg/L [S] | 0.03 mg/L [S] | 0.03 mg/L [S]
Candida tropicalis isolate 51 (ERG11 copies: 2, Erg11p: no key change) | 0.06 mg/L [S] | 0.06 mg/L [S] | 0.5 mg/L [S] | 0.5 mg/L [S] | 0.06 mg/L [S] | ≤ 0.06 mg/L [S] | ≤ 0.015 mg/L [S] | 0.015 mg/L [S] | 0.03 mg/L [S]
Candida tropicalis isolate 282 (ERG11 copies: 2, Erg11p: no key change) | 0.12 mg/L [S] | 0.12 mg/L [S] | 2 mg/L [S] | 1 mg/L [S] | 0.06 mg/L [S] | ≤ 0.06 mg/L [S] | 0.12 mg/L [S] | 0.03 mg/L [S] | 0.03 mg/L [S]
Candida tropicalis isolate 174 (ERG11 copies: 2, Erg11p: no key change) | 0.12 mg/L [S] | 0.25 mg/L [S] | 1 mg/L [S] | 0.5 mg/L [S] | 0.12 mg/L [S] | ≤ 0.06 mg/L [S] | 0.03 mg/L [S] | 0.03 mg/L [S] | 0.03 mg/L [S]
Candida tropicalis isolate 7 (ERG11 copies: 2, Erg11p: no key change) | 0.03 mg/L [S] | 0.06 mg/L [S] | 0.5 mg/L [S] | 0.5 mg/L [S] | 0.015 mg/L [S] | 0.12 mg/L [S] | 0.06 mg/L [S] | 0.06 mg/L [S] | 0.03 mg/L [S]
Candida tropicalis isolate 288 (ERG11 copies: 2, Erg11p: no key change) | 0.25 mg/L [S] | 0.25 mg/L [S] | 1 mg/L [S] | 1 mg/L [S] | 0.12 mg/L [S] | 0.12 mg/L [S] | 0.03 mg/L [S] | 0.03 mg/L [S] | 0.03 mg/L [S]
Candida tropicalis isolate 259 (ERG11 copies: 4, Erg11p: Y132F, S154F (heterozygous)) | 0.5 mg/L [R] | 0.5 mg/L [S] | 256 mg/L [R] | 1 mg/L [S] | ≥ 8 mg/L [R] | ≤ 0.06 mg/L [S] | 0.12 mg/L [S] | 0.03 mg/L [S] | 0.03 mg/L [S]
Candida tropicalis isolate 378 (ERG11 copies: 8, Erg11p: Y132F, S154F (heterozygous)) | 0.5 mg/L [R] | 0.5 mg/L [S] | 512 mg/L [R] | 0.5 mg/L [S] | ≥ 8 mg/L [R] | ≤ 0.06 mg/L [S] | 0.12 mg/L [S] | 0.25 mg/L [S] | 0.06 mg/L [S]
Candida tropicalis isolate 69 (ERG11 copies: 2, Erg11p: no key change) | 0.06 mg/L [S] | 0.12 mg/L [S] | 1 mg/L [S] | 0.25 mg/L [S] | 0.06 mg/L [S] | ≤ 0.06 mg/L [S] | 0.03 mg/L [S] | 0.03 mg/L [S] | 0.03 mg/L [S]
